The values that follow come from the supplement of paper PMC12067230.

Single values of this set are uncertain.
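Further: [psi-pin-] Saccharomyces cerevisiae expressing SupN fusions, induced by 100 µM Cu2SO4, selected 7 d at 30 °C without adenine and uracil, scored by deep sequencing of output versus input.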

One series is described as follows: amyloid nucleation score relative to library mode (yeast Sup35 reporter selection) (log enrichment difference); higher = more amyloid nucleation; sequences are the first 22 residues of the Bri2 peptide extended by up to 12 random residues. As to conditions: random library (experiment): 1;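 active = nucleation score significantly above 0 at FDR 0.05; inactive = not significantly above 0 or absent from output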.
For EASNCFAIRHFENKFAVETLICTAFDCRMRWVWR, the amyloid nucleation score result is “inactive”.
On the same count and under the same terms, next, EASNCFAIRHFENKFAVETLICTAGM: “inactive”; EASNCFAIRHFENKFAVETLICTAGWMC: 4.27.
For EASNCFAIRHFENKFAVETLICTAIEVQSVMRWG, the amyloid nucleation score entry was “inactive”.
EASNCFAIRHFENKFAVETLICTALMCSRVARAK yielded an amyloid nucleation score of -0.708.
On the same count and under the same terms, next, EASNCFAIRHFENKFAVETLICTAMGFGTNQCSS: “inactive”; EASNCFAIRHFENKFAVETLICTAPWAGEWHVDT: 4.63; EASNCFAIRHFENKFAVETLICTARCMRCGETAR: “inactive”.
Sequence EASNCFAIRHFENKFAVETLICTASCAGFLCEPS showed an amyloid nucleation score of 3.44.
Still for that read-out and setting: next, EASNCFAIRHFENKFAVETLICTAWANPKIFELC: “inactive”.
On the same count and under the same terms, next, EASNCFAIRHFENKFAVETLICTAWWA: 5.07; EASNCFAIRHFENKFAVETLICTCAHGTVRIVSV: “inactive”; EASNCFAIRHFENKFAVETLICTCG: “inactive”.
The same measure, in the same setting: next, EASNCFAIRHFENKFAVETLICTCGALWKGSRLA: “inactive”.
Consider EASNCFAIRHFENKFAVETLICTCGSLRTLSVLR, for which the amyloid nucleation score result is “inactive”.
On to EASNCFAIRHFENKFAVETLICTCLASCE, for which the amyloid nucleation score entry is “inactive”.
For EASNCFAIRHFENKFAVETLICTCLLRFKFYSPY, the amyloid nucleation score entry was “inactive”.
As to EASNCFAIRHFENKFAVETLICTCRSKVWVVFWW, the amyloid nucleation score result was “inactive”.
EASNCFAIRHFENKFAVETLICTCSNGCHLVLYW: the amyloid nucleation score entry was “inactive”.
As for EASNCFAIRHFENKFAVETLICTCTAHYQKGSLV, the amyloid nucleation score result was “inactive”.
On to EASNCFAIRHFENKFAVETLICTCVL, for which the amyloid nucleation score entry was “inactive”.
Turning to EASNCFAIRHFENKFAVETLICTCWFYGS, the amyloid nucleation score is 5.22.
Consider EASNCFAIRHFENKFAVETLICTCYLCVQYYRWL, for which the amyloid nucleation score entry was “inactive”.
On to EASNCFAIRHFENKFAVETLICTD, for which the amyloid nucleation score result was “inactive”.
As for EASNCFAIRHFENKFAVETLICTDAMPIGTCCLD, the amyloid nucleation score came to 0.391.
As for EASNCFAIRHFENKFAVETLICTDAQRGVRERPV, the amyloid nucleation score entry is “inactive”.
EASNCFAIRHFENKFAVETLICTDCTAL: the amyloid nucleation score result is “inactive”.
EASNCFAIRHFENKFAVETLICTDEGWLWLHCQL: the amyloid nucleation score result is “inactive”.
On to EASNCFAIRHFENKFAVETLICTDGCVSDGATVQ, for which the amyloid nucleation score entry is “inactive”.
Take EASNCFAIRHFENKFAVETLICTDGLGGYMWKVR: the amyloid nucleation score result was “inactive”.
In the case of EASNCFAIRHFENKFAVETLICTDILVGRNGWTV, the amyloid nucleation score entry is “inactive”.
As to EASNCFAIRHFENKFAVETLICTDKGYRGSALRS, the amyloid nucleation score came to 0.565.
For the sequence EASNCFAIRHFENKFAVETLICTDLRD, the amyloid nucleation score entry was “inactive”.
Consider EASNCFAIRHFENKFAVETLICTDLSNVRFLCKH, for which the amyloid nucleation score was found to be 8.42.
Consider EASNCFAIRHFENKFAVETLICTDRALR, for which the amyloid nucleation score is -0.0479.
EASNCFAIRHFENKFAVETLICTDREYRRRAMSR: the amyloid nucleation score entry is “inactive”.
Still for that read-out and setting: next, EASNCFAIRHFENKFAVETLICTDRGKRQVRSVA: “inactive”; EASNCFAIRHFENKFAVETLICTDSVLFASMLFR: “inactive”; EASNCFAIRHFENKFAVETLICTDT: “inactive”.
Regarding EASNCFAIRHFENKFAVETLICTDTGHVSQSSEG, the amyloid nucleation score result was “inactive”.
Take EASNCFAIRHFENKFAVETLICTDTILMTHTDRP: the amyloid nucleation score was found to be 4.97.
Regarding EASNCFAIRHFENKFAVETLICTDTW, the amyloid nucleation score result was “inactive”.
Take EASNCFAIRHFENKFAVETLICTDVFKMGARSGW: the amyloid nucleation score turned out to be 7.33.
Regarding EASNCFAIRHFENKFAVETLICTDWNSILVGGEY, the amyloid nucleation score entry was “inactive”.

Still in this series, the particulars now being: random library (experiment): 2.
The sequence EASNCFAIRHFENKFAVETLICTAFIVQISCGFH had an amyloid nucleation score of 4.61.
Turning to EASNCFAIRHFENKFAVETLICTAFNTNDHGERE, the amyloid nucleation score result is “inactive”.
For EASNCFAIRHFENKFAVETLICTAKLIGASGKGG, the amyloid nucleation score is 4.74.
With EASNCFAIRHFENKFAVETLICTAVLFILETRLQ, the amyloid nucleation score result is “inactive”.
For EASNCFAIRHFENKFAVETLICTAYFMYSLRSDI, the amyloid nucleation score was found to be 0.027.
On to EASNCFAIRHFENKFAVETLICTC, for which the amyloid nucleation score turned out to be 0.828.
EASNCFAIRHFENKFAVETLICTCANFGYAVIM gave an amyloid nucleation score of 7.96.
EASNCFAIRHFENKFAVETLICTCDGYCSRFIM: the amyloid nucleation score entry was “inactive”.
The sequence EASNCFAIRHFENKFAVETLICTCDILSMDVT returned an amyloid nucleation score of 4.67.
Turning to EASNCFAIRHFENKFAVETLICTCFFL, the amyloid nucleation score came to 8.34.
On the same count and under the same terms, next, EASNCFAIRHFENKFAVETLICTCFSAVRGHPSY: 9.16; EASNCFAIRHFENKFAVETLICTCKCLWFYLP: “inactive”.
Still for that read-out and setting: next, EASNCFAIRHFENKFAVETLICTCLGLSCLWNLC: 8.34; EASNCFAIRHFENKFAVETLICTCLNDFFCRFS: “inactive”.
Take EASNCFAIRHFENKFAVETLICTCLPEGFSVFH: the amyloid nucleation score was determined as 8.38.
For the sequence EASNCFAIRHFENKFAVETLICTCLRLNVGSVEV, the amyloid nucleation score result is “inactive”.
The same measure, in the same setting: next, EASNCFAIRHFENKFAVETLICTCLVLLNVRVEY: “inactive”; EASNCFAIRHFENKFAVETLICTCMGSLSLYKV: 2.97; EASNCFAIRHFENKFAVETLICTCMVVRFSCPDV: “inactive”.
For EASNCFAIRHFENKFAVETLICTCPRMVIFIFQS, the amyloid nucleation score entry is “inactive”.
Same read-out and setting: next, EASNCFAIRHFENKFAVETLICTCRYKVTHSCLK: 5.15.
For the sequence EASNCFAIRHFENKFAVETLICTCSLLFKMTGVD, the amyloid nucleation score entry was “inactive”.
EASNCFAIRHFENKFAVETLICTCTRTQRELRGS displayed an amyloid nucleation score of 2.46.
For the sequence EASNCFAIRHFENKFAVETLICTCVGVNA, the amyloid nucleation score entry was “inactive”.
EASNCFAIRHFENKFAVETLICTCYCIKHSVVAG: the amyloid nucleation score is -0.293.
For EASNCFAIRHFENKFAVETLICTDDCYTHVQVDW, the amyloid nucleation score result is “inactive”.
With EASNCFAIRHFENKFAVETLICTDDKELICEVMG, the amyloid nucleation score entry is “inactive”.
Same read-out and setting: next, EASNCFAIRHFENKFAVETLICTDDSNESDSWNC: 0.35; EASNCFAIRHFENKFAVETLICTDISHVKVVFAM: “inactive”; EASNCFAIRHFENKFAVETLICTDLPENGCRARG: “inactive”.
For the sequence EASNCFAIRHFENKFAVETLICTDNSRLKRYLID, the amyloid nucleation score result is “inactive”.
Still for that read-out and setting: next, EASNCFAIRHFENKFAVETLICTDRVCAAMEVAA: “inactive”.
Turning to EASNCFAIRHFENKFAVETLICTDSMTRSALFNY, the amyloid nucleation score entry was “inactive”.
Still for that read-out and setting: next, EASNCFAIRHFENKFAVETLICTDSSLNFHAWKY: 7.38; EASNCFAIRHFENKFAVETLICTDTLYLWELGH: 4.62.

The same series, now with this note: random library (experiment): 3.
Sequence EASNCFAIRHFENKFAVETLICTAFGLFSEKRRR displayed an amyloid nucleation score of 6.51.
Consider EASNCFAIRHFENKFAVETLICTAGRR, for which the amyloid nucleation score entry is “inactive”.
On the same count and under the same terms, next, EASNCFAIRHFENKFAVETLICTAGSWNRERLWY: 2; EASNCFAIRHFENKFAVETLICTAKNRRSVVMMA: “inactive”.
Turning to EASNCFAIRHFENKFAVETLICTATLFDAVAQRW, the amyloid nucleation score is 4.33.
As to EASNCFAIRHFENKFAVETLICTAVIVFASIVKR, the amyloid nucleation score result is “inactive”.
In the case of EASNCFAIRHFENKFAVETLICTAYISGISVWY, the amyloid nucleation score amounted to 4.46.
EASNCFAIRHFENKFAVETLICTCDRGLRCSP returned an amyloid nucleation score of 6.49.
For EASNCFAIRHFENKFAVETLICTCENRRLVGGT, the amyloid nucleation score is 3.15.
Regarding EASNCFAIRHFENKFAVETLICTCLCC, the amyloid nucleation score worked out at 7.55.
As for EASNCFAIRHFENKFAVETLICTCLIMARCSWME, the amyloid nucleation score was -0.483.
Sequence EASNCFAIRHFENKFAVETLICTCMGLVVLHQPS returned an amyloid nucleation score of 7.29.
The sequence EASNCFAIRHFENKFAVETLICTCPRRPYQFWNR had an amyloid nucleation score of 2.68.
Still for that read-out and setting: next, EASNCFAIRHFENKFAVETLICTCQR: 6.1; EASNCFAIRHFENKFAVETLICTCRNKREQDGVE: 9.14.
EASNCFAIRHFENKFAVETLICTCRQGHWKVPSG: the amyloid nucleation score result was “inactive”.
In the case of EASNCFAIRHFENKFAVETLICTCRTWLLVPCRR, the amyloid nucleation score entry is “inactive”.
In the case of EASNCFAIRHFENKFAVETLICTCSWGFLIGVPM, the amyloid nucleation score entry is “inactive”.
Take EASNCFAIRHFENKFAVETLICTDLRSTALKLGS: the amyloid nucleation score result is “inactive”.
As to EASNCFAIRHFENKFAVETLICTDLVPWNGREPM, the amyloid nucleation score entry is “inactive”.
Same read-out and setting: next, EASNCFAIRHFENKFAVETLICTDNKWMKSGSGW: 2.99; EASNCFAIRHFENKFAVETLICTDRFVGLVRLWV: “inactive”.
In turn, EASNCFAIRHFENKFAVETLICTDRGASLMYDYP registered an amyloid nucleation score of 3.34.
Regarding EASNCFAIRHFENKFAVETLICTDWSFRGIRTML, the amyloid nucleation score is 4.36.
